# At least one compound was matched to its structure with a doubt left. *1 amine or outer side, *2 acyl side, *3 side chain or, on linkers, in order; H or OH if unused. Where a SMILES comes first, the peptide text is derived from it. Side-chain parts run from the residue outwards. γGlu = O=C(O)[C@H](CCC(=O)[*:2])N[*:1]
# Test: ThT fibrillation assay for physical stability (lag time, recovery)
# Format: physicochemical
# Details: for ThT assay [Lag time]: absence of increased ThT fluorescence noted as lag time of 45 hours; for ThT assay [Recovery]: peptide concentration in filtered supernatant after ThT assay as percentage of initial
SMILES,ThT assay [Lag time] [h],ThT assay [Recovery] [%]
"CC(=O)N[C@@H](CCC(=O)N[C@@H](CCC(=O)N[C@@H](CCC(=O)N[C@@H](CCC(=O)NCCCC[C@H](NC(=O)[C@@H](NC(=O)[C@H](Cc1ccccc1)NC(=O)[C@H](CC(=O)O)NC(=O)[C@H](CCC(N)=O)NC(=O)[C@H](C)NC(=O)[C@H](CCCNC(=N)N)NC(=O)[C@H](CCCNC(=N)N)NC(=O)[C@H](CC(C)C)NC(=O)[C@H](CC(=O)O)NC(=O)[C@H](CC(C)C)NC(=O)[C@H](Cc1ccc(O)cc1)NC(=O)[C@H](CCCCN)NC(=O)[C@H](CO)NC(=O)[C@@H](NC(=O)[C@H](CC(=O)O)NC(=O)[C@H](CO)NC(=O)[C@@H](NC(=O)[C@H](Cc1ccccc1)NC(=O)[C@@H](NC(=O)CNC(=O)[C@H](CCC(N)=O)NC(=O)[C@H](CO)NC(=O)[C@@H](N)Cc1c[nH]cn1)[C@@H](C)O)[C@@H](C)O)C(C)C)C(C)C)C(=O)N[C@@H](Cc1c[nH]c2ccccc12)C(=O)N[C@@H](CC(C)C)C(=O)N[C@@H](CC(C)C)C(=O)N[C@@H](CO)C(=O)N[C@H](C(=O)O)[C@@H](C)O)C(=O)O)C(=O)O)C(=O)O)C(=O)O [Example 43, N^ε24-[(4S)-4-[[(4S)-4-[[(4S)-4-[[(4S)-4-acetamido-4-carboxybutanoyl]amino]-4-carboxybutanoyl]amino]-4-carboxybutanoyl]amino]-4-carboxybutanoyl]-[Val^10,Leu^16,Lys^24,Leu^27,Ser^28]-Glucagon] (H-HSQGTFTSDVSKYLDLRRAQDFVK([γGlu-γGlu-γGlu-γGlu-Ac])WLLST-OH)",45,100
"CC(=O)N[C@@H](CCC(=O)N[C@@H](CCC(=O)N[C@@H](CCC(=O)N[C@@H](CCC(=O)NCCCC[C@H](NC(=O)[C@@H](NC(=O)[C@H](Cc1ccccc1)NC(=O)[C@H](CC(=O)O)NC(=O)[C@H](CCC(N)=O)NC(=O)[C@H](C)NC(=O)[C@H](CCCNC(=N)N)NC(=O)[C@H](CCCNC(=N)N)NC(=O)[C@H](CO)NC(=O)[C@H](CCC(=O)O)NC(=O)[C@H](CC(C)C)NC(=O)[C@H](Cc1ccc(O)cc1)NC(=O)[C@H](CCCCN)NC(=O)[C@H](CO)NC(=O)[C@@H](NC(=O)[C@H](CC(=O)O)NC(=O)[C@H](CO)NC(=O)[C@@H](NC(=O)[C@H](Cc1ccccc1)NC(=O)[C@@H](NC(=O)CNC(=O)[C@H](CCC(N)=O)NC(=O)[C@H](CO)NC(=O)[C@@H](N)Cc1c[nH]cn1)[C@@H](C)O)[C@@H](C)O)C(C)C)C(C)C)C(=O)N[C@@H](Cc1c[nH]c2ccccc12)C(=O)N[C@@H](CC(C)C)C(=O)N[C@@H](CC(C)C)C(=O)N[C@@H](CO)C(=O)N[C@H](C(=O)O)[C@@H](C)O)C(=O)O)C(=O)O)C(=O)O)C(=O)O [Example 44, N^ε24-[(4S)-4-[[(4S)-4-[[(4S)-4-[[(4S)-4-acetamido-4-carboxybutanoyl]amino]-4-carboxybutanoyl]amino]-4-carboxybutanoyl]amino]-4-carboxybutanoyl]-[Val^10,Glu^15,Lys^24,Leu^27,Ser^28]-Glucagon] (H-HSQGTFTSDVSKYLESRRAQDFVK([γGlu-γGlu-γGlu-γGlu-Ac])WLLST-OH)",45,100
"CC(=O)N[C@@H](CCC(=O)N[C@@H](CCC(=O)N[C@@H](CCC(=O)N[C@@H](CCC(=O)NCCCC[C@H](NC(=O)[C@@H](NC(=O)[C@H](Cc1ccccc1)NC(=O)[C@H](CCC(=O)O)NC(=O)[C@H](CCC(N)=O)NC(=O)[C@H](C)NC(=O)[C@H](CCCNC(=N)N)NC(=O)[C@H](CCCNC(=N)N)NC(=O)[C@H](CO)NC(=O)[C@H](CCC(=O)O)NC(=O)[C@H](CC(C)C)NC(=O)[C@H](Cc1ccc(O)cc1)NC(=O)[C@H](CCCCN)NC(=O)[C@H](CO)NC(=O)[C@@H](NC(=O)[C@H](CC(=O)O)NC(=O)[C@H](CO)NC(=O)[C@@H](NC(=O)[C@H](Cc1ccccc1)NC(=O)[C@@H](NC(=O)CNC(=O)[C@H](CCC(N)=O)NC(=O)[C@H](CO)NC(=O)[C@@H](N)Cc1c[nH]cn1)[C@@H](C)O)[C@@H](C)O)C(C)C)C(C)C)C(=O)N[C@@H](Cc1c[nH]c2ccccc12)C(=O)N[C@@H](CC(C)C)C(=O)N[C@@H](CC(C)C)C(=O)N[C@@H](CO)C(=O)N[C@H](C(=O)O)[C@@H](C)O)C(=O)O)C(=O)O)C(=O)O)C(=O)O [Example 45, N^ε24-[(4S)-4-[[(4S)-4-[[(4S)-4-[[(4S)-4-acetamido-4-carboxybutanoyl]amino]-4-carboxybutanoyl]amino]-4-carboxybutanoyl]amino]-4-carboxybutanoyl]-[Val^10,Glu^15,Glu^21,Lys^24,Leu^27,Ser^28]-Glucagon] (H-HSQGTFTSDVSKYLESRRAQEFVK([γGlu-γGlu-γGlu-γGlu-Ac])WLLST-OH)",45,100
"CC(=O)N[C@@H](CCC(=O)N[C@@H](CCC(=O)N[C@@H](CCC(=O)N[C@@H](CCC(=O)NCCCC[C@H](NC(=O)[C@@H](NC(=O)[C@H](Cc1ccccc1)NC(=O)[C@H](CCC(=O)O)NC(=O)[C@H](C)NC(=O)[C@H](C)NC(=O)[C@H](CCCNC(=N)N)NC(=O)[C@H](CCCNC(=N)N)NC(=O)[C@@H](NC(=O)[C@H](CC(=O)O)NC(=O)[C@H](CC(C)C)NC(=O)[C@H](Cc1ccc(O)cc1)NC(=O)[C@H](CCCCN)NC(=O)[C@H](CO)NC(=O)[C@H](Cc1ccc(O)cc1)NC(=O)[C@H](CC(=O)O)NC(=O)[C@H](CO)NC(=O)[C@@H](NC(=O)[C@H](Cc1ccccc1)NC(=O)[C@@H](NC(=O)CNC(=O)[C@H](Cc1c[nH]cn1)NC(=O)CNC(=O)[C@@H](N)Cc1c[nH]cn1)[C@@H](C)O)[C@@H](C)O)C(C)C)C(C)C)C(=O)N[C@@H](Cc1c[nH]c2ccccc12)C(=O)N[C@@H](CC(C)C)C(=O)N[C@@H](CC(C)C)C(=O)N[C@@H](CO)C(=O)N[C@H](C(=O)O)[C@@H](C)O)C(=O)O)C(=O)O)C(=O)O)C(=O)O [Example 46, N^ε24-[(4S)-4-[[(4S)-4-[[(4S)-4-[[(4S)-4-acetamido-4-carboxybutanoyl]amino]-4-carboxybutanoyl]amino]-4-carboxybutanoyl]amino]-4-carboxybutanoyl]-[Gly^2,His^3,Val^16,Ala^2°,Glu^21,Lys^24,Leu^27,Ser^28]-Glucagon] (H-HGHGTFTSDYSKYLDVRRAAEFVK([γGlu-γGlu-γGlu-γGlu-Ac])WLLST-OH)",45,
"CC(=O)N[C@@H](CCC(=O)N[C@@H](CCC(=O)N[C@@H](CCC(=O)N[C@@H](CCC(=O)NCCCC[C@H](NC(=O)[C@@H](NC(=O)[C@H](Cc1ccccc1)NC(=O)[C@H](CCC(=O)O)NC(=O)[C@H](C)NC(=O)[C@H](C)NC(=O)[C@H](CCCNC(=N)N)NC(=O)[C@H](CCCNC(=N)N)NC(=O)[C@@H](NC(=O)[C@H](CC(=O)O)NC(=O)[C@H](CC(C)C)NC(=O)[C@H](Cc1ccc(O)cc1)NC(=O)[C@H](CCCCN)NC(=O)[C@H](CO)NC(=O)[C@H](Cc1ccc(O)cc1)NC(=O)[C@H](CC(=O)O)NC(=O)[C@H](CO)NC(=O)[C@@H](NC(=O)[C@H](Cc1ccccc1)NC(=O)[C@@H](NC(=O)CNC(=O)[C@H](Cc1c[nH]cn1)NC(=O)[C@H](C)NC(=O)[C@@H](N)Cc1c[nH]cn1)[C@@H](C)O)[C@@H](C)O)C(C)C)C(C)C)C(=O)N[C@@H](Cc1c[nH]c2ccccc12)C(=O)N[C@@H](CC(C)C)C(=O)N[C@@H](CC(C)C)C(=O)N[C@@H](CO)C(=O)N[C@H](C(=O)O)[C@@H](C)O)C(=O)O)C(=O)O)C(=O)O)C(=O)O [Example 47, N^ε24-[(4S)-4-[[(4S)-4-[[(4S)-4-[[(4S)-4-acetamido-4-carboxybutanoyl]amino]-4-carboxybutanoyl]amino]-4-carboxybutanoyl]amino]-4-carboxybutanoyl]-[Ala^2,His^3,Val^16,Ala^20,Glu^21,Lys^24,Leu^27,Ser^28]-Glucagon] (H-HAHGTFTSDYSKYLDVRRAAEFVK([γGlu-γGlu-γGlu-γGlu-Ac])WLLST-OH)",25,100
